This passage reports self-cleavage results from the RNAGym collection of RNA variant scans (doi:10.7554/elife.90254).

The source gives no read counts; variants with many changes may rest on few reads.

B1: LINE1-mini (parent)
chain: GGCAGAGCUCAACACAGCGUGGCAAAGUGGCUGUGGCUAGACUGCC

This data set covers variants of B1. Put plainly: self-cleavage, relative activity (ratio to wild type); higher = more cleavage; in vitro, sequencing; the parent is a self-cleaving ribozyme.
Take G7A C8A A12U C37U: the self-cleavage amounted to 0.01.

As to G1C A26C C31G, the self-cleavage was 0.02. As for A11U A12G G33C, the self-cleavage came to 0.02. On to G5A C18U G22A C23A G27A, for which the self-cleavage was found to be 2.03. For C8G C13U G27A, the self-cleavage was determined as 0.13.

For the variant U9C C15A C18G U38C C45U, the self-cleavage turned out to be 0.

With U34G C37A G44A, the self-cleavage is 0.01. Take C23U C37U U38C: the self-cleavage was found to be 0.03.

Take A6G A11G G21U: the self-cleavage was 0.02. Regarding G2A U9G U34A G40C, the self-cleavage was 0.03.

For G5C C13A C23A, the self-cleavage came out at 0.1.

For A6C G27A U32G, the self-cleavage came to 0.03. Regarding C13G G19C G40A, the self-cleavage amounted to 0.1. As to G1U G2U U9C U20C, the self-cleavage is 0.02. As for A14G G17C C18A, the self-cleavage was 0.04.

With G1U G2U C13A G19A C23A A39U C42U C45U, the self-cleavage is 0. With A24G G29U G36A, the self-cleavage is 0.81. Then A26G G33C A39C C42G, with 0.03; and G1U G5U A25G A26G G27C U32C G35C G40U, with 0.04. Turning to G5U C8G G35U U38G, the self-cleavage turned out to be 0.05. Then G21U U28G C31U G36U, with 0. G7A A11G C23U U32C: the self-cleavage came to 0.01. Turning to G29U G36U U38C, the self-cleavage is 0.02.

With G1A A14U G30U C31A, the self-cleavage is 0.04. For the variant G27U G44A C46G, the self-cleavage is 0. C8A U20G G33C A41C: the self-cleavage was determined as 0.04. In the case of A11C A25C A39U G40C A41C, the self-cleavage was 0.01. As to C8G G36A G44A, the self-cleavage is 0.04.

On to G5C G27A G36U C45G, for which the self-cleavage amounted to 0.01. Consider G5U A12U G21C C37A C46U, for which the self-cleavage stood at 0.01.

On to C18A G36A C46U, for which the self-cleavage came to 0.12.

Consider C3G A12U G19C C37G A39C, for which the self-cleavage stood at 0.03. With C18G U34A A39C the figure was 0.01. As for U20C G36A U38A A41G G44U, the self-cleavage stood at 0.27. With G5C A6G C23A U43A the figure was 0.02.

Consider C13A G22C C46U, for which the self-cleavage is 0.09. Turning to A6G G7U G21A G27U G30A C31A C46G, the self-cleavage was 0.13. In the case of A16U C31A U32C, the self-cleavage was found to be 0.05. Take U32C U34G C46G: the self-cleavage amounted to 0. With C8A A24U U32G G44U, the self-cleavage turned out to be 0.36. Then G2U C3A A4G A6G, with 0.12. For the variant G27U A41U U43A, the self-cleavage amounted to 0.11. In the case of G35C G36U C42U, the self-cleavage is 0.01. G2C U20C G44A: the self-cleavage was 0.08. Turning to G22U A26U G33U G36C, the self-cleavage was 0.02.

Turning to C3U A12U A26U G27A, the self-cleavage is 0.07. Then G1U G2C C3A G7A G30A G35C, with 0.71; and G7A G27U U34G C45A, with 0.21; and C3A G17A G19U A41C, with 0.09. In the case of G2A G36U U43C G44C, the self-cleavage was 0.03. For the variant C10G A11C G19U G27A C31A C37A, the self-cleavage came to 0. Turning to C3G A6U A24U C46U, the self-cleavage came to 0.83. Take G35U G36A U43A: the self-cleavage came out at 0.03. In the case of A14U C31U C46G, the self-cleavage was 0.02. Consider A25U G35A G36U A41U, for which the self-cleavage stood at 1.23.

In the case of G1A C3G A6C C13A G33A, the self-cleavage stood at 0.19. For the variant G2U A6G A11G C13G A16U G35U G40C, the self-cleavage stood at 0.02.

With G1U A24U U32G C37U U38C, the self-cleavage is 0.02. As to G19C A25G G33U C42U U43G, the self-cleavage amounted to 0.01. With A12C A16U C45G the figure was 0.03; with G27U C37U C46A, 0.03; with C8G G22U G29C, 0.04.

G1C C15G G22C G40U: the self-cleavage was 0.01. Consider A12G U28C G30U C31U U43A, for which the self-cleavage is 0.01. Take G2U G5A C8U C23A G30A: the self-cleavage was determined as 0.16. With G2C A12C C13A G27A C31U G33U the figure was 0.05; with C3G C8U A14C G30A, 0.05; with G1U A24C A26G C42A, 0.06. Consider C15U G22U A24C G27U A41U, for which the self-cleavage was 0.19. Take G19U U32A U34A A39U: the self-cleavage stood at 0.07.

Consider G2U A16G A26U G30A, for which the self-cleavage was determined as 0.02.

Regarding C8U A12G C46G, the self-cleavage amounted to 0.12. Take A6G G35A A39G: the self-cleavage came to 0.08. As for G21U G22A G35U, the self-cleavage came to 0.41. G30U G40U A41U: the self-cleavage amounted to 0.12. Turning to G1U A12C A24G G33U, the self-cleavage was 0.02. G2U A4U C42A: the self-cleavage turned out to be 0.11. As to C13G C31A A41G C42A, the self-cleavage turned out to be 0.2. Then C3G A4G G5U U32C G35A C37A U43A, with 0.02; and G2A G7C A12G A25C G29C, with 0.01. For the variant G2C C13G U38A G40C A41U, the self-cleavage was found to be 0.05.

C10A C23A A26C: the self-cleavage turned out to be 0.02. As for G1C C3A C8G, the self-cleavage is 0.04. Then A4C G5A C10A A26U, with 0.

Take C23G G27A C42A: the self-cleavage turned out to be 0.08.

In the case of G17A G35A C42U, the self-cleavage stood at 0.14. On to G2A G7A G35A A39G, for which the self-cleavage is 0.44.

For C10A A14U G21A C23G A25G G30C, the self-cleavage stood at 0.05. Consider G21C G30C U32G C46A, for which the self-cleavage was 0.02. For the variant G1A A14U C37U C46U, the self-cleavage came to 0.02. As for C13A A14U G27A G29U, the self-cleavage was 0.09. Regarding C8G G35U G40U, the self-cleavage turned out to be 0.01. With C13A G19C C46G the figure was 0.04. With C8A A11U A12C G40A C42A C46U the figure was 0. For C8G U20A U43A, the self-cleavage amounted to 0.02. With A6C U28A G30U C37G U38C the figure was 0; with C10A C13A C15A U34G G36U, 0.04; with G21A G29A U32C U34A, 0.02. For the variant C13U C23A U43A, the self-cleavage turned out to be 0.11. With A4G G36U C37U U38A, the self-cleavage is 0.04.

As for C3A G27C G44U, the self-cleavage was determined as 0.96. With A24G G27A A39C G40C, the self-cleavage was 0.02. In the case of G17A C37U A39G, the self-cleavage stood at 0.

On to C3G A26C G40A, for which the self-cleavage was 0.02. C10A G17C G22A: the self-cleavage amounted to 0.09.

As to A14U C18G U20C G21C G29A, the self-cleavage was 0.06. With A16G C18U G21C G27U, the self-cleavage was found to be 0.75. For the variant A11U C13A G27C G29U, the self-cleavage came out at 0.02. Turning to A14G C23U G29C C31A, the self-cleavage stood at 0.07. For the variant G22C G29C C45G, the self-cleavage was found to be 0.02. Consider C15U G19A C23U A25C G27A, for which the self-cleavage worked out at 0.95. Turning to U9C A14U C18A A25G C45A, the self-cleavage worked out at 0.01. Then G22A C23G G27U C37A G40A, with 0.21; and G2U A11G G21A G22A, with 0; and G1A U9A G21C A39G U43C, with 0.84. Consider A12G A25G U28A, for which the self-cleavage is 0.05.

Regarding C13G G27C G35C A39G, the self-cleavage is 0.42. In the case of C13U A24U G29A G30U G33C A41U C42G, the self-cleavage amounted to 0.02.

Regarding G7C G36A A41C C45U, the self-cleavage came out at 0.2.

Consider A4C C8U C23U G27C U32C A39G, for which the self-cleavage stood at 0.07. On to C8U C23U G40U, for which the self-cleavage turned out to be 0.57.

Turning to A16G G19U G29U G36C U43G, the self-cleavage stood at 0. As for G1U A11G G19U C23U C42G, the self-cleavage was 0. For C15A A25U C42U C46U, the self-cleavage came out at 0.05. For C8A G30A C37G, the self-cleavage stood at 0.1. Consider G17A G19C G21A, for which the self-cleavage was 1.04. For the variant C13A A26C U32G U43A, the self-cleavage came out at 0.07. On to G1A G5A C15A G29U G33U G36C, for which the self-cleavage worked out at 0.07. G22U G29A G35A: the self-cleavage amounted to 0.36. For the variant G1U A12G U28C, the self-cleavage amounted to 0.06. Take A11G C23U C46U: the self-cleavage came to 0.04. As to G19A G29U G33A U34A, the self-cleavage is 0.13. G19C U20A G35A G40C: the self-cleavage is 0.03. As for A6U A16G C23U G40C, the self-cleavage was 0.16. Regarding G17C G36A G40A, the self-cleavage amounted to 0.14.

Regarding A4G C8G A16G G27U U32A G36A, the self-cleavage amounted to 0.01. On to G17U C37G C42G, for which the self-cleavage is 0.01. As to A11C G19A A26G A39G, the self-cleavage stood at 0.01. For A6U G33U G40U, the self-cleavage was 0.12. In the case of C3G G5A G7A, the self-cleavage was 0.33. In the case of A16U G19A G44U, the self-cleavage is 0.07. For the variant C8G C13A G29U, the self-cleavage worked out at 0.05.

As to A6U G22A U28A G35A C42A, the self-cleavage was 0.16. Then G7C A26C G30U U32G, with 0.05.

C13A G29U A39C: the self-cleavage was found to be 0.02. In the case of A14C U20C C31U A39C, the self-cleavage worked out at 0. As to A14G G27C C31A, the self-cleavage came out at 0.13. C10A G17U G30C U34A C37U: the self-cleavage came to 0. With G5A U9A A12G G19A A39U the figure was 0.04; with G2A C13A G19A G21C U43C, 0.07; with C15A C18G G21U, 0.29. Regarding C8U C10A A14U U28C G33C, the self-cleavage worked out at 0.03. Regarding G1A G2C C10A, the self-cleavage came to 0.01. Regarding A12U U34C C42G, the self-cleavage is 0.03.

For A6U C8A C13A G40U C46U, the self-cleavage amounted to 0.12. G2A A39C U43A: the self-cleavage is 0.42. Then A6C C31U U43A, with 0.02; and C10A C15G C18U G21A G33A, with 0.02; and G21A C23A C31G, with 0.12. With G1U G2C C13A the figure was 0.05.

Turning to G1U A12U G27A U28C U34A C37U, the self-cleavage worked out at 0.01. Take G2A A12U U34G U43G: the self-cleavage amounted to 0.01. For the variant U9G C10U C13U A14G A24U A25C C45U, the self-cleavage turned out to be 0.03. Then A26U G44A C45U, with 0.05; and A6U C13G G22A G27C, with 0.06; and G22A G33A C37U C45A, with 0.04. On to G1A A16U C23G G29U U38A, for which the self-cleavage came out at 0.06.
